{"source": "the supplement of paper PMC8728848", "binders": {"B1": {"name": "Als3-N (Candida albicans) (protein)", "chain": "KTITGVFNSFNSLTWSNAATYNYKGPGTPTWNAVLGWSLDGTSASPGDTFTLNMPCVFKFTTSQTSVDLTAHGVKYATCQFQAGEEFMTFSTLTCTVSNTLTPSIKALGTVTLPLAFNVGGTGSSVDLEDSKCFTAGTNTVTFNDGGKKISINVDFERSNVDPKGYLTDSRVIPSLNKVSTLFVAPQCANGYTSGTMGFANTYGDVQIDCSNIHVGITKGLNDWNYPVSSESFSYTKTCSSNGIFITYKNVPAGYRPFVDAYISATDVNSYTLSYANEYTCAGGYWQRAPFTLRWTGYRNSDAGSNGIVIVATTRTVTDSTTAVTTLPFDPNRDKTKTIEILKPIPTTTITTSYVGVTTSYLTKTAPIGETATVIVDIPYHTTTTVTSKWTGTITSTTTHTNPTDSIDTVIVQVP"}}, "experiment_in_all_cases": "glycan array binding signal (z-score within array); higher = stronger binding", "conditions_in_all_cases": "glycan notation: IUPAC condensed, linker removed", "key": {"[1]": {"target": "Gal(b1-4)GlcNAc(b1-3)Gal(b1-3)GlcNAc", "method_in_brief": "(§1)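 Columns mapping to the same glycan were averaged after glycan names were converted to IUPAC-condensed notation. The data come from 3228 arrays in the Consortium for Functional Glycomics database, limited to those with an available protein sequence. Binding is reported as a within-array Z-score averaged across arrays of one protein sequence and across linkers.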"}, "[2]": {"target": "Gal(b1-4)GlcNAc(b1-3)Gal(b1-4)Glc", "method_in_brief": "as §1"}, "[3]": {"target": "Gal(b1-4)GlcNAc(b1-3)Gal(b1-4)GlcNAc", "method_in_brief": "as §1"}, "[4]": {"target": "Gal(b1-4)GlcNAc(b1-3)Gal(b1-4)GlcNAc(b1-2)Man(a1-3)[Gal(b1-4)GlcNAc(b1-3)Gal(b1-4)GlcNAc(b1-2)Man(a1-6)]Man(b1-4)GlcNAc(b1-4)GlcNAc", "method_in_brief": "as §1"}, "[5]": {"target": "Gal(b1-4)GlcNAc(b1-3)Gal(b1-4)GlcNAc(b1-2)Man(a1-3)[Gal(b1-4)GlcNAc(b1-3)Gal(b1-4)GlcNAc(b1-2)Man(a1-6)]Man(b1-4)GlcNAc(b1-4)[Fuc(a1-6)]GlcNAc", "method_in_brief": "as §1"}, "[6]": {"target": "Gal(b1-4)GlcNAc(b1-3)Gal(b1-4)GlcNAc(b1-2)[Gal(b1-4)GlcNAc(b1-3)Gal(b1-4)GlcNAc(b1-6)]Man(a1-6)[Gal(b1-4)GlcNAc(b1-3)Gal(b1-4)GlcNAc(b1-2)Man(a1-3)]Man(b1-4)GlcNAc(b1-4)GlcNAc", "method_in_brief": "as §1"}, "[7]": {"target": "Gal(b1-4)GlcNAc(b1-3)Gal(b1-4)GlcNAc(b1-2)[Gal(b1-4)GlcNAc(b1-3)Gal(b1-4)GlcNAc(b1-6)]Man(a1-6)[Gal(b1-4)GlcNAc(b1-3)Gal(b1-4)GlcNAc(b1-2)Man(a1-3)]Man(b1-4)GlcNAc(b1-4)[Fuc(a1-6)]GlcNAc", "method_in_brief": "as §1"}, "[8]": {"target": "Gal(b1-4)GlcNAc(b1-3)Gal(b1-4)GlcNAc(b1-3)Gal(b1-4)GlcNAc", "method_in_brief": "as §1"}, "[9]": {"target": "Gal(b1-4)GlcNAc(b1-3)Gal(b1-4)GlcNAc(b1-3)Gal(b1-4)GlcNAc(b1-2)Man(a1-3)[Gal(b1-4)GlcNAc(b1-3)Gal(b1-4)GlcNAc(b1-3)Gal(b1-4)GlcNAc(b1-2)Man(a1-6)]Man(b1-4)GlcNAc(b1-4)GlcNAc", "method_in_brief": "as §1"}, "[10]": {"target": "Gal(b1-4)GlcNAc(b1-3)Gal(b1-4)GlcNAc(b1-3)Gal(b1-4)GlcNAc(b1-2)Man(a1-3)[Gal(b1-4)GlcNAc(b1-3)Gal(b1-4)GlcNAc(b1-3)Gal(b1-4)GlcNAc(b1-2)Man(a1-6)]Man(b1-4)GlcNAc(b1-4)[Fuc(a1-6)]GlcNAc", "method_in_brief": "as §1"}, "[11]": {"target": "Gal(b1-4)GlcNAc(b1-3)Gal(b1-4)GlcNAc(b1-3)Gal(b1-4)GlcNAc(b1-2)[Gal(b1-4)GlcNAc(b1-3)Gal(b1-4)GlcNAc(b1-3)Gal(b1-4)GlcNAc(b1-6)]Man(a1-6)[Gal(b1-4)GlcNAc(b1-3)Gal(b1-4)GlcNAc(b1-3)Gal(b1-4)GlcNAc(b1-2)Man(a1-3)]Man(b1-4)GlcNAc(b1-4)[Fuc(a1-6)]GlcNAc", "method_in_brief": "as §1"}, "[12]": {"target": "Gal(b1-4)GlcNAc(b1-3)Gal(b1-4)GlcNAc(b1-3)Gal(b1-4)GlcNAc(b1-3)Gal(b1-4)GlcNAc(b1-2)Man(a1-3)[Gal(b1-4)GlcNAc(b1-3)Gal(b1-4)GlcNAc(b1-3)Gal(b1-4)GlcNAc(b1-3)Gal(b1-4)GlcNAc(b1-2)Man(a1-6)]Man(b1-4)GlcNAc(b1-4)GlcNAc", "method_in_brief": "as §1"}, "[13]": {"target": "Gal(b1-4)GlcNAc(b1-3)Gal(b1-4)GlcNAc(b1-3)Gal(b1-4)GlcNAc(b1-3)Gal(b1-4)GlcNAc(b1-2)Man(a1-3)[Gal(b1-4)GlcNAc(b1-3)Gal(b1-4)GlcNAc(b1-3)Gal(b1-4)GlcNAc(b1-3)Gal(b1-4)GlcNAc(b1-2)Man(a1-6)]Man(b1-4)GlcNAc(b1-4)[Fuc(a1-6)]GlcNAc", "method_in_brief": "as §1"}, "[14]": {"target": "Gal(b1-4)GlcNAc(b1-3)Gal(b1-4)GlcNAc(b1-3)Gal(b1-4)GlcNAc(b1-3)Gal(b1-4)GlcNAc(b1-2)[Gal(b1-4)GlcNAc(b1-3)Gal(b1-4)GlcNAc(b1-3)Gal(b1-4)GlcNAc(b1-3)Gal(b1-4)GlcNAc(b1-6)]Man(a1-6)[Gal(b1-4)GlcNAc(b1-3)Gal(b1-4)GlcNAc(b1-3)Gal(b1-4)GlcNAc(b1-3)Gal(b1-4)GlcNAc(b1-2)Man(a1-3)]Man(b1-4)GlcNAc(b1-4)[Fuc(a1-6)]GlcNAc", "method_in_brief": "as §1"}, "[15]": {"target": "Gal(b1-4)GlcNAc(b1-3)Gal(b1-4)GlcNAc(b1-3)Gal(b1-4)GlcNAc(b1-3)Gal(b1-4)GlcNAc(b1-3)Gal(b1-4)GlcNAc(b1-2)Man(a1-3)[Gal(b1-4)GlcNAc(b1-3)Gal(b1-4)GlcNAc(b1-3)Gal(b1-4)GlcNAc(b1-3)Gal(b1-4)GlcNAc(b1-3)Gal(b1-4)GlcNAc(b1-2)Man(a1-6)]Man(b1-4)GlcNAc(b1-4)GlcNAc", "method_in_brief": "as §1"}, "[16]": {"target": "Gal(b1-4)GlcNAc(b1-3)Gal(b1-4)GlcNAc(b1-3)Gal(b1-4)GlcNAc(b1-3)Gal(b1-4)GlcNAc(b1-3)Gal(b1-4)GlcNAc(b1-2)Man(a1-3)[Gal(b1-4)GlcNAc(b1-3)Gal(b1-4)GlcNAc(b1-3)Gal(b1-4)GlcNAc(b1-3)Gal(b1-4)GlcNAc(b1-3)Gal(b1-4)GlcNAc(b1-2)Man(a1-6)]Man(b1-4)GlcNAc(b1-4)[Fuc(a1-6)]GlcNAc", "method_in_brief": "as §1"}, "[17]": {"target": "Gal(b1-4)GlcNAc(b1-3)Gal(b1-4)GlcNAc(b1-3)Gal(b1-4)GlcNAc(b1-3)Gal(b1-4)GlcNAc(b1-3)Gal(b1-4)GlcNAc(b1-2)[Gal(b1-4)GlcNAc(b1-3)Gal(b1-4)GlcNAc(b1-3)Gal(b1-4)GlcNAc(b1-3)Gal(b1-4)GlcNAc(b1-3)Gal(b1-4)GlcNAc(b1-6)]Man(a1-6)[Gal(b1-4)GlcNAc(b1-3)Gal(b1-4)GlcNAc(b1-3)Gal(b1-4)GlcNAc(b1-3)Gal(b1-4)GlcNAc(b1-3)Gal(b1-4)GlcNAc(b1-2)Man(a1-3)]Man(b1-4)GlcNAc(b1-4)[Fuc(a1-6)]GlcNAc", "method_in_brief": "as §1"}, "[18]": {"target": "Gal(b1-4)GlcNAc(b1-3)Gal(b1-4)GlcNAc(b1-3)Gal(b1-4)GlcNAc(b1-3)Gal(b1-4)GlcNAc(b1-3)Gal(b1-4)GlcNAc(b1-3)Gal(b1-4)GlcNAc(b1-2)Man(a1-3)[Gal(b1-4)GlcNAc(b1-3)Gal(b1-4)GlcNAc(b1-3)Gal(b1-4)GlcNAc(b1-3)Gal(b1-4)GlcNAc(b1-3)Gal(b1-4)GlcNAc(b1-3)Gal(b1-4)GlcNAc(b1-2)Man(a1-6)]Man(b1-4)GlcNAc(b1-4)GlcNAc", "method_in_brief": "as §1"}, "[19]": {"target": "Gal(b1-4)GlcNAc(b1-3)Gal(b1-4)GlcNAc(b1-3)GalNAc", "method_in_brief": "as §1"}}, "note": "The list shows a part of the results."}
{"binder": "B1", "values": [{"measurement": "glycan array binding signal (z-score)", "setting": "[1]", "value": -0.246}, {"measurement": "glycan array binding signal (z-score)", "setting": "[2]", "value": -0.26}, {"measurement": "glycan array binding signal (z-score)", "setting": "[3]", "value": -0.193}, {"measurement": "glycan array binding signal (z-score)", "setting": "[4]", "value": 8.26}, {"measurement": "glycan array binding signal (z-score)", "setting": "[5]", "value": 0.229}, {"measurement": "glycan array binding signal (z-score)", "setting": "[6]", "value": 0.906}, {"measurement": "glycan array binding signal (z-score)", "setting": "[7]", "value": 0.224}, {"measurement": "glycan array binding signal (z-score)", "setting": "[8]", "value": -0.356}, {"measurement": "glycan array binding signal (z-score)", "setting": "[9]", "value": 3.26}, {"measurement": "glycan array binding signal (z-score)", "setting": "[10]", "value": -0.02}, {"measurement": "glycan array binding signal (z-score)", "setting": "[11]", "value": 0.187}, {"measurement": "glycan array binding signal (z-score)", "setting": "[12]", "value": 0.309}, {"measurement": "glycan array binding signal (z-score)", "setting": "[13]", "value": -0.002}, {"measurement": "glycan array binding signal (z-score)", "setting": "[14]", "value": 0.608}, {"measurement": "glycan array binding signal (z-score)", "setting": "[15]", "value": 0.396}, {"measurement": "glycan array binding signal (z-score)", "setting": "[16]", "value": -0.009}, {"measurement": "glycan array binding signal (z-score)", "setting": "[17]", "value": 0.198}, {"measurement": "glycan array binding signal (z-score)", "setting": "[18]", "value": 0.023}, {"measurement": "glycan array binding signal (z-score)", "setting": "[19]", "value": 0.259}]}
